Article PMC7504102
No constants are given. Whether binding was seen depends on the method and setting. In cells and extracts the contact can be indirect. Some entries that bind do so weakly or less than the wild type. Tags and fused reporters may be left off the sequences shown.

The chains behind the UniProt entries cited, without tags or fusion partners.
UniProt O75340: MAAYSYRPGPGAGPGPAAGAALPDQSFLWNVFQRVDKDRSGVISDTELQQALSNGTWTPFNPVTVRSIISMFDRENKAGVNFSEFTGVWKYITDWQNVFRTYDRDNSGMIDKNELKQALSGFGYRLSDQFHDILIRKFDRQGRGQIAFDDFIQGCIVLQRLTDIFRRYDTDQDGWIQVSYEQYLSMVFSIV

T1: StrepHA-SARAF_CytD-SGFP2 (WT) (human) (UniProt Q96BY9)
T1 sequence: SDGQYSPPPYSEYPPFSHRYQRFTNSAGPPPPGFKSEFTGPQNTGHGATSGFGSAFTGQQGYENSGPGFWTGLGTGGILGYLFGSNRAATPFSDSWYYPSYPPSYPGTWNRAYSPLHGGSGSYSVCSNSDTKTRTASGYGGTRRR


How the values were obtained:
[1] = molecular target: endogenous ALG-2 (human (endogenous in HEK293, HeLa, MCF7)) (UniProt O75340); assay: co-IP; IP with anti-ALG-2 mAb from cleared lysates (HEK293 stably expressing untagged SARAF, HeLa, MCF7); HKM, 1% CHAPS, 5 mM EGTA; WB with anti-SARAF and anti-Sec31A pAbs
[2] = molecular target: endogenous ALG-2 (human (endogenous in HEK293, HeLa, MCF7)) (UniProt O75340); assay: co-IP; IP with anti-ALG-2 mAb from cleared lysates (HEK293 stably expressing untagged SARAF, HeLa, MCF7); HKM, 1% CHAPS, 100 μM CaCl2 (MCF7: varying or no added CaCl2); WB with anti-SARAF and anti-Sec31A pAbs
[3] = molecular target: full-length SARAF fused with different tags (SGFP2 and HiBiT), WT (human) (UniProt Q96BY9); assay: co-IP; data not shown; full-length SARAF fused with different tags (SGFP2 and HiBiT); in the presence and absence of Ca2+
[4] = molecular target: T1, StrepHA-SARAF_CytD-SGFP2 (WT) (human); assay: co-IP; co-IP/HiBiT assay: SGFP2-fused proteins immunoprecipitated with anti-GFP pAb from HEK293 or HEK293 ALG-2KO lysates (with or without co-expressed FLAG-ALG-2); HKM, 1% Nonidet P-40, 10 mM NEM, 10 μM CaCl2; co-precipitated HiBiTHA-SARAF read by lytic HiBiT assay with LgBiT, normalised by …
[5] = molecular target: full-length SARAF fused with different tags (SGFP2 and HiBiT), F228S (human) (UniProt Q96BY9); assay: co-IP; data not shown; full-length SARAF fused with different tags (SGFP2 and HiBiT); in the presence and absence of Ca2+

binding [1]	binding [2]	Binder	also measured
no binding (condition: with 5 mM EGTA)	binds	untagged wild type (WT) SARAF (protein, UniProt Q96BY9 31-339) WNDPDRMLLRDVKALTLHYDRYTTSRRLDPIPQLKCVGGTAGCDSYTPKVIQCQNKGWDGYDVQWECKTDLDIAYKFGKTVVSCEGYESSEDQYVLRGSCGLEYNLDYTELGLQKLKESGKQHGFASFSDYYYKWSSADSCNMSGLITIVVLLGIAFVVYKLFLSDGQYSPPPYSEYPPFSHRYQRFTNSAGPPPPGFKSEFTGPQNTGHGATSGFGSAFTGQQGYENSGPGFWTGLGTGGILGYLFGSNRAATPFSDSWYYPSYPPSYPGTWNRAYSPLHGGSGSYSVCSNSDTKTRTASGYGGTRRR	–
–	–	full-length SARAF fused with different tags (SGFP2 and HiBiT), WT (protein, UniProt Q96BY9 31-339) WNDPDRMLLRDVKALTLHYDRYTTSRRLDPIPQLKCVGGTAGCDSYTPKVIQCQNKGWDGYDVQWECKTDLDIAYKFGKTVVSCEGYESSEDQYVLRGSCGLEYNLDYTELGLQKLKESGKQHGFASFSDYYYKWSSADSCNMSGLITIVVLLGIAFVVYKLFLSDGQYSPPPYSEYPPFSHRYQRFTNSAGPPPPGFKSEFTGPQNTGHGATSGFGSAFTGQQGYENSGPGFWTGLGTGGILGYLFGSNRAATPFSDSWYYPSYPPSYPGTWNRAYSPLHGGSGSYSVCSNSDTKTRTASGYGGTRRR	binding [3]: binds
–	–	full-length HiBiTHA-SARAF (WT) (protein, UniProt Q96BY9 31-339) WNDPDRMLLRDVKALTLHYDRYTTSRRLDPIPQLKCVGGTAGCDSYTPKVIQCQNKGWDGYDVQWECKTDLDIAYKFGKTVVSCEGYESSEDQYVLRGSCGLEYNLDYTELGLQKLKESGKQHGFASFSDYYYKWSSADSCNMSGLITIVVLLGIAFVVYKLFLSDGQYSPPPYSEYPPFSHRYQRFTNSAGPPPPGFKSEFTGPQNTGHGATSGFGSAFTGQQGYENSGPGFWTGLGTGGILGYLFGSNRAATPFSDSWYYPSYPPSYPGTWNRAYSPLHGGSGSYSVCSNSDTKTRTASGYGGTRRR	binding [4]: binds
no binding (condition: with 5 mM EGTA)	binds	endogenous SARAF (protein, UniProt Q96BY9 31-339) WNDPDRMLLRDVKALTLHYDRYTTSRRLDPIPQLKCVGGTAGCDSYTPKVIQCQNKGWDGYDVQWECKTDLDIAYKFGKTVVSCEGYESSEDQYVLRGSCGLEYNLDYTELGLQKLKESGKQHGFASFSDYYYKWSSADSCNMSGLITIVVLLGIAFVVYKLFLSDGQYSPPPYSEYPPFSHRYQRFTNSAGPPPPGFKSEFTGPQNTGHGATSGFGSAFTGQQGYENSGPGFWTGLGTGGILGYLFGSNRAATPFSDSWYYPSYPPSYPGTWNRAYSPLHGGSGSYSVCSNSDTKTRTASGYGGTRRR	–
–	–	full-length SARAF fused with different tags (SGFP2 and HiBiT), F228S (protein, UniProt Q96BY9 31-339) WNDPDRMLLRDVKALTLHYDRYTTSRRLDPIPQLKCVGGTAGCDSYTPKVIQCQNKGWDGYDVQWECKTDLDIAYKFGKTVVSCEGYESSEDQYVLRGSCGLEYNLDYTELGLQKLKESGKQHGFASFSDYYYKWSSADSCNMSGLITIVVLLGIAFVVYKLFLSDGQYSPPPYSEYPPFSHRYQRFTNSAGPPPPGSKSEFTGPQNTGHGATSGFGSAFTGQQGYENSGPGFWTGLGTGGILGYLFGSNRAATPFSDSWYYPSYPPSYPGTWNRAYSPLHGGSGSYSVCSNSDTKTRTASGYGGTRRR	binding [5]: binds
